{"source": "PubChem BioAssay AID686979", "about": "(National Center for Advancing Translational Sciences (NCATS), 2013)", "note": "“And” between values parts separate entries of the source, which are not always exact repeats. Equal values may be shown once. The campaign covered roughly 420,000 compounds. About 50,000 (12%) were called active. Inconclusive results, whose numbers are uncertain, are shown with a selection of clear calls. The call rests on the fitted dose curve; in most records, active means well fitted inhibition curve with a large enough effect; inconclusive means small, poorly fitted or top-dose-only effect; inactive means flat fitted curve, though single readings scatter. Potencies of inconclusive entries are doubtful fits and often do not repeat. On the % scale 0 is the no-effect control and ±100 the full control effect; potency means the concentration at half of the fitted maximal effect; tags describe the fitted curve by direction and shape.", "data": [{"assay": "qHTS for Inhibitors of human tyrosyl-DNA phosphodiesterase 1 (TDP1): qHTS in cells in presence of CPT; further: nearly all actives have a fitted effect of over 55% in size", "details": "chicken DT40 Tdp1-/-;hTDP1 cells + 20 nM CPT, ATP luminescence, 48 h; activity change, negative = growth inhibition: at 46.2 µM (top of the series)", "procedure,_shortened": "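Chicken DT40 Tdp1-/- cells stably complemented with human TDP1 were seeded at 400 cells/well in medium containing 20 nM camptothecin, exposed to pin-transferred compounds, and grown at 37 °C for at least 48 hr. Viability was read as ATP luminescence.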", "values": [{"smiles": "CN(c1ccccc1)S(=O)(=O)c1cc(C(=O)Nc2nc3ccccc3[nH]2)ccc1Cl", "Potency": "inconclusive: 23.1 µM [inhibitor, single point]"}, {"smiles": "CC(C)Nc1ncnc2c1ncn2[C@H]1CN(Cc2ccc3c(c2)OCO3)C[C@@H](CO)O1", "activity change, negative = growth inhibition": "inactive: -0.842%"}, {"smiles": "O=c1[nH]c2cc3ccccc3cc2nc1-c1nnnn1Cc1ccccc1", "Potency": "inconclusive: 16.4 µM [inhibitor, single point]"}, {"smiles": "O=c1nccc(N/N=C/c2ccccc2O)[nH]1", "Potency": "active: 0.231 µM"}, {"smiles": "O=C(NCCNC(=O)c1cc(OCC(F)(F)F)ccc1OCC(F)(F)F)Nc1ccc(OC(F)(F)F)cc1", "Potency": "inconclusive: 23.1 µM [inhibitor, single point]"}, {"smiles": "Cc1nnc(SCc2cnc(-c3ccc(C(C)C)cc3)s2)n1C", "activity change, negative = growth inhibition": "inactive: 7.09%"}, {"smiles": "COc1ccccc1N1CCN(C(=O)c2ccc3[nH]c4c(c3c2)CCCC4)CC1", "Potency": "inconclusive: 18.4 µM [inhibitor, single point]"}, {"smiles": "Cc1ccc(NC(=O)CN2C(=O)CC(C)S(=O)(=O)c3ccccc32)cc1", "note": "(configuration not stated)", "activity change, negative = growth inhibition": "inactive: -1.49%"}, {"smiles": "CCc1cccc(NC(=O)CN2C(=O)COc3ccc(S(=O)(=O)Nc4ccccc4)cc32)c1", "Potency": "inconclusive: 29.1 µM [inhibitor, single point]"}, {"smiles": "O=[N+]([O-])c1cccc2c1ccc1ncccc12", "activity change, negative = growth inhibition": "inactive: -2.32%"}, {"smiles": "CC(C)C(=O)NC(c1ccc([N+](=O)[O-])cc1)c1c(O)ccc2ccccc12", "note": "(configuration not stated)", "Potency": "active: 17.8 µM"}, {"smiles": "CC1CCC2(CC1)NC(=O)N(CC(=O)N1c3ccccc3CC1C)C2=O", "note": "(configuration not stated)", "activity change, negative = growth inhibition": "inconclusive: -34.2% [inhibitor]"}, {"smiles": "COc1cc([N+](=O)[O-])cc(/C=N/NC(=O)Cn2nccc2C)c1O", "Potency": "inconclusive: 29.1 µM [inhibitor, single point]"}, {"smiles": "C=CCN(c1cccc(C(F)(F)F)c1)S(=O)(=O)c1cccc(C(=O)OCC(=O)NC)c1", "Potency": "inconclusive: 29.1 µM [inhibitor, partial curve, poor fit]"}, {"smiles": "Cc1cc(C(=O)N2CCN(c3ncccn3)CC2)c(C)o1", "Potency": "active: 13 µM"}, {"smiles": "Cc1ccc(N2CCN(c3ccc(NCc4nc5ccccc5n4C)cc3)CC2)cc1", "Potency": "inconclusive: 25.9 µM [inhibitor, single point]"}, {"smiles": "COc1ccc(OCc2ccc(-c3nc4ccccc4c(=O)n3N)o2)cc1", "Potency": "inconclusive: 29.1 µM [inhibitor, single point]"}, {"smiles": "Cc1ccnc2c(N3C(=O)C4C5c6ccccc6C(c6ccccc65)C4C3=O)cccc12", "note": "(configuration not stated)", "Potency": "active: 20.6 µM"}, {"smiles": "CC(=O)N1CCC(=O)Nc2ccc([N+](=O)[O-])cc21", "activity change, negative = growth inhibition": "inactive: 1.61%"}, {"smiles": "COc1ccc(NC(=O)C23CCC(C)(C(=O)C2)C3(C)C)cc1", "note": "(configuration not stated)", "activity change, negative = growth inhibition": "inactive: 4.56%"}, {"smiles": "COc1cccc(Cn2c(=O)c(-c3ccc(F)cc3)nc3cnc(N(C)C)nc32)c1", "activity change, negative = growth inhibition": "inactive: 3.03%"}, {"smiles": "CCOC(=O)c1ccc(N2C(=O)c3[nH]nc(-c4ccc(C)cc4)c3C2c2cccc(F)c2)cc1", "note": "(configuration not stated)", "Potency": "active: 23.1 µM"}, {"smiles": "COc1ccccc1NC(=O)CCn1c(=O)c2cccn2c2ccccc21", "Potency": "inconclusive: 29.1 µM [inhibitor, single point]"}, {"smiles": "CCOC(=O)c1cnc(SC2CC(=O)N(c3cccc(OC)c3)C2=O)nc1N", "note": "(configuration not stated)", "Potency": "inconclusive: 23.1 µM [inhibitor, single point]"}, {"smiles": "O=C(CSCc1ccccc1)NNC(=S)Nc1cccc(Cl)c1Cl", "activity change, negative = growth inhibition": "inconclusive: -30.4% [inhibitor]"}, {"smiles": "CCCC[N+](CC#CCO)(CC#Cc1ccccc1)CCCC", "Potency": "inconclusive: 14.6 µM [inhibitor, partial curve]"}, {"smiles": "Cc1ccc(CSc2nc3ccc(NC(=O)COc4ccccc4)cc3s2)cc1", "Potency": "active: 14.6 µM"}, {"smiles": "CCN(CC)CCCN1C=C2C(=O)C(C)(OC(=O)C3CCCC3)C(=O)C(c3ccccc3)=C2C=C1CCCC(=O)OC", "note": "(configuration not stated)", "activity change, negative = growth inhibition": "inactive: -8.25%"}, {"smiles": "CCC1CCCCN1C(=O)C(=O)c1cn(CC(=O)N(CC)CC)c2ccccc12", "note": "(configuration not stated)", "Potency": "inconclusive: 20.6 µM [inhibitor, single point]"}, {"smiles": "Cc1cccc(-n2ncc(C(=O)N3CCN(c4ccc(Cl)cc4)CC3)c2C2CCN(C(=O)OC(C)(C)C)CC2)c1", "Potency": "active: 14.6 µM"}, {"smiles": "COc1ccc(CNC(=O)Cn2c(SCC(=O)Nc3ccc(OC)cc3)nc3ccccc32)cc1", "Potency": "inconclusive: 29.1 µM [inhibitor, single point]"}, {"smiles": "O=C(CC[C@H]1O[C@@H](n2cnc3c(NC(=O)c4ccccc4)ncnc32)[C@H](O)[C@@H]1O)NCc1nc2ccccc2[nH]1", "activity change, negative = growth inhibition": "inactive: -3.27%"}, {"smiles": "CN1C(=O)c2ccccc2C(O)c2ccccc21", "note": "(configuration not stated)", "activity change, negative = growth inhibition": "inconclusive: -31.6% [inhibitor]"}, {"smiles": "CC1(C(=O)Nc2ccc3c(c2)OCCO3)CCC(=O)N1CCOc1ccccc1", "note": "(configuration not stated)", "activity change, negative = growth inhibition": "inactive: -12.8%"}, {"smiles": "COC(=O)c1cn(C(=O)c2ccccc2Cl)c2ccccc12", "Potency": "inconclusive: 32.6 µM [inhibitor, single point]"}, {"smiles": "CCOC(=O)C1CCCCN1C(=O)c1cnn(-c2nccc(-c3cc(C)sc3C)n2)c1C1CC1", "note": "(configuration not stated)", "activity change, negative = growth inhibition": "inactive: -9.17% [at 9.04 µM]"}, {"smiles": "COc1ccc(CCC(=O)OCC(=O)c2ccc(C)cc2)cc1", "activity change, negative = growth inhibition": "inactive: 8.08%"}, {"smiles": "Cn1nc(C(=O)NCc2ccc(Cl)cc2)c2c1-c1ccccc1S(=O)(=O)C2", "Potency": "inconclusive: 20.6 µM [inhibitor, single point] and inconclusive: 11.6 µM [inhibitor, partial curve]"}, {"smiles": "CS(=O)(=O)Nc1cccc(C2=NN(C(=O)c3ccco3)C(c3cccs3)C2)c1", "note": "(configuration not stated)", "Potency": "inconclusive: 29.1 µM [inhibitor, single point]"}, {"smiles": "COc1ccc(OC)c(CNC(=O)c2cc3c(-c4ccc(OC)c(OC)c4)nn(C)c3s2)c1", "Potency": "inconclusive: 14.6 µM [inhibitor, partial curve, poor fit]"}, {"smiles": "CCCc1ccc(C(=O)CCC(=O)NNC(=O)c2ccncc2)cc1", "activity change, negative = growth inhibition": "inactive: -7.4%"}, {"smiles": "Cc1nc2c(-c3ccccc3)cnn2c(N2CCOCC2)c1C", "activity change, negative = growth inhibition": "inactive: -14.6%"}, {"smiles": "COCCN1CCN(c2cc(-c3ccccc3)nc3cc(-c4cccc(F)c4)nn23)CC1", "Potency": "active: 8.2 µM"}, {"smiles": "Cc1nc(C)c(Cc2ccccc2Cl)c(=O)[nH]1", "activity change, negative = growth inhibition": "inactive: -5.87%"}, {"smiles": "CCNC(=S)N1CCC(C(=O)c2ccc(Cl)cc2)CC1", "Potency": "inconclusive: 20.6 µM [inhibitor, partial curve]"}, {"smiles": "c1cncc(-c2csc(-c3cccnc3)n2)c1", "activity change, negative = growth inhibition": "inactive: -13.7%"}, {"smiles": "Cc1ccc(NC(=O)c2ccc(-c3cccc(Cl)c3C)o2)cc1", "activity change, negative = growth inhibition": "inactive: -23.5%"}, {"smiles": "Cc1ccc2c(c1)-c1c(ssc1=S)C(C)(C)N2C(=O)c1ccco1", "Potency": "inconclusive: 25.9 µM [inhibitor, single point]"}, {"smiles": "C#CCNC(=O)C[C@@H]1C[C@@]2(C(=O)OC)CCCCC=C2N(Cc2cccc3ccccc23)C1=O", "Potency": "inconclusive: 29.1 µM [inhibitor, single point]"}, {"smiles": "O=C(CNC(=O)c1ccccc1)NC1(C(=O)NC2CCCCC2)CCCCC1", "activity change, negative = growth inhibition": "inactive: -0.561%"}, {"smiles": "Cc1cc(C(=O)Nc2nc3c(s2)CCCC3)cs1", "Potency": "inconclusive: 29.1 µM [inhibitor, single point]"}, {"smiles": "CCc1ccc2nc(N(CCN(CC)CC)C(=O)c3ccco3)sc2c1", "Potency": "active: 20.6 µM"}, {"smiles": "COc1ccc(NC(=O)CCN(c2ccc(OC)cc2)S(=O)(=O)c2ccc(C)c(C)c2)cc1", "Potency": "inconclusive: 9.2 µM [inhibitor, partial curve, poor fit]"}, {"smiles": "CC(=O)Nc1ccc(S(=O)(=O)NCc2ccc(C)cc2)cc1", "Potency": "inconclusive: 14.6 µM [inhibitor, partial curve]"}, {"smiles": "O=C(O)c1cc(S(=O)(=O)Nc2ccc3cn[nH]c3c2)ccc1O", "Potency": "inconclusive: 13 µM [inhibitor, single point]"}, {"smiles": "COc1ccc(C(C)C)cc1S(=O)(=O)N1CCN(c2ccccc2)CC1", "Potency": "inconclusive: 16.4 µM [inhibitor, single point]"}, {"smiles": "CC(=O)c1c(C)[nH]c(C(=O)CSc2nnc(-c3ccccc3)o2)c1C", "Potency": "active: 16.4 µM"}, {"smiles": "CCN(CC)C(=O)c1cc(-c2ccc3c(c2)OCO3)on1", "activity change, negative = growth inhibition": "inactive: 9.07%"}, {"smiles": "CCCCCn1c(=O)[nH]c2cc(C(=O)Nc3cc(C)cc(C)c3)ccc2c1=O", "Potency": "active: 4.11 µM"}, {"smiles": "Cc1ccc2nc(-c3ccncc3)c(NC3CCCCC3)n2c1", "Potency": "active: 23.1 µM"}, {"smiles": "COc1ccc(N2CCN(C(=O)Cc3ccc(OC)c(OC)c3)CC2)cc1", "Potency": "active: 8.2 µM"}, {"smiles": "O=C1c2cccc(OCc3ccc(F)cc3)c2CCN1Cc1ccc(F)cc1", "Potency": "inconclusive: 29.1 µM [inhibitor, single point]"}, {"smiles": "c1ccc2c(CCc3c[nH]c4ccccc34)ccnc2c1", "Potency": "active: 12.6 µM"}, {"smiles": "O=c1cc(-c2ccccc2Cl)oc2c(NS(=O)(=O)c3cccc4nsnc34)ccc(O)c12", "Potency": "inconclusive: 6.51 µM [inhibitor, single point]"}, {"smiles": "Cc1ccc2nsnc2c1S(=O)(=O)NCc1ccncc1", "Potency": "inconclusive: 16.4 µM [inhibitor, single point]"}, {"smiles": "Cc1oc2cc(O)ccc2c(=O)c1Oc1ccccc1", "Potency": "active: 6.51 µM"}, {"smiles": "Cc1ccc(C)c(NC(=O)CN2CCCN(Cc3cccc(Cl)c3)S2(=O)=O)c1", "Potency": "inconclusive: 29.1 µM [inhibitor, single point]"}, {"smiles": "COc1ccccc1S(=O)(=O)CC(O)COc1ccccc1Cl", "note": "(configuration not stated)", "activity change, negative = growth inhibition": "inactive: -14.2%"}, {"smiles": "CN(Cc1ccco1)c1ccnc(-c2cccc(NS(C)(=O)=O)c2)n1", "Potency": "inconclusive: 29.1 µM [inhibitor, single point]"}, {"smiles": "COc1cc(/C=C/C(=O)OCC(=O)Nc2ccc3c(c2)OCO3)ccc1O", "Potency": "inconclusive: 10.3 µM [inhibitor, partial curve]"}, {"smiles": "O=C(N/N=C/c1c(O)n(-c2ccccc2Cl)c(=O)c2ccccc12)c1cccnc1", "Potency": "inconclusive: 18.4 µM [inhibitor, single point]"}, {"smiles": "C=CCn1c(SCc2cc(=O)n3ccsc3n2)nc2sc(C)c(C)c2c1=O", "Potency": "inconclusive: 10.3 µM [inhibitor, partial curve]"}]}]}
